# ± gives the standard deviation of the averaged measurements. The full ranking holds about 33,000 sequences; the median of “E-score (dimensionless, -0.5 to 0.5)” is about -0.049, and the highest 2% start at about 0.37. The list shows a part of the results.
# Test system: T1, PmTbr T-box DNA-binding domain (GST fusion)
# T1 sequence: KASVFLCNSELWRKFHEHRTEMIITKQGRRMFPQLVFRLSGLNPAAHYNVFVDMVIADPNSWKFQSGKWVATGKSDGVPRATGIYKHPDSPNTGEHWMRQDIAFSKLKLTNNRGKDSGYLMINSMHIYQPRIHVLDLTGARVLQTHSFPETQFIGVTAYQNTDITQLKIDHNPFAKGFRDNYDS
# Assay: PBM E-score of 8-mer (E-score (dimensionless, -0.5 to 0.5)); Tbr is Tbrain of the sea star Patiria miniata (Pm) or the sea urchin Strongylocentrotus purpuratus (Sp); higher = stronger binding preference; most listed sequences are background and not binding sites
# Conditions: the construct has about 5 more residues each side
# In short: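 GST-fused Tbr T-box DNA-binding domains (the whole T-box plus about five flanking residues) were expressed in BL21 E. coli at 20 °C and purified by glutathione affinity chromatography. Universal Agilent oligonucleotide arrays were made double-stranded by primer extension, incubated with 200 nM protein in PBS (pH 7.5), then scanned and quantified. Every ungapped 8-mer was scored from probe intensities. The Universal PBM Analysis Suite gave each word an enrichment E-score, averaged over duplicate arrays.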
row,Sequence,PBM E-score of 8-mer
1,AGGACCCG,-0.037 ± 0.039
2,GAACCTTA,-0.144 ± 0.042
3,ATAGCCGA,-0.231 ± 0.038
4,TCGTCCCA,-0.28 ± 0.0074
5,AACGCAGT,0.0247 ± 0.0046
6,CTAACAGC,0.168 ± 0.056
7,CAGCCCTA,-0.104 ± 0.032
8,AATATATA,-0.0392 ± 0.088
9,ATTTGTAA,-0.0411 ± 0.12
10,GGGTTCAC,0.17 ± 0.039
11,ATGCTGTA,-0.236 ± 0.032
12,GAGTATCC,-0.174 ± 0.014
13,CATAGACC,-0.27 ± 0.033
14,GGGATCTA,-0.211 ± 0.079
15,ATGATCAG,-0.232 ± 0.0052
16,CAGTAGTA,0.0233 ± 0.0039
17,GAGTATCA,-0.0776 ± 0.091
18,TCGCATCA,0.149 ± 0.042
19,ATGTGAAA,0.287 ± 0.019
20,ACCACCAA,0.0394 ± 0.048
21,ACAATTCT,0.0705 ± 0.023
22,CTCAGTGA,-0.0507 ± 0.041

row,Sequence,PBM E-score of 8-mer
1,AAGTGCTC,0.0187 ± 0.018
2,GCTGTAGA,-0.25 ± 0.0054
3,ATCCGCAT,-0.237 ± 0.017
4,CTAGAACC,-0.14 ± 0.074
5,AAACTTGT,0.163 ± 0.073
6,CGATCTCA,0.0841 ± 0.016
7,GGGCCGAA,-0.122 ± 0.037
8,CCCCGAGG,-0.148 ± 0.056
9,CGGTTAGA,-0.182 ± 0.026
10,ACATTGCA,0.0709 ± 0.034
11,ACGTTCTG,-0.0735 ± 0.011
12,AACGCCCG,0.0305 ± 0.028
13,CATGAAGC,-0.064 ± 0.045
14,GATGGTCC,-0.346 ± 0.014
15,ACGCAATA,-0.0241 ± 0.054
16,TATGTTGA,-0.0692 ± 0.1
17,CCAGGACA,0.0761 ± 0.0049
18,GACGTCCA,-0.0383 ± 0.0085
19,AGTCAAGG,-0.0922 ± 0.0097
20,ACACTTAC,0.412 ± 0.0079
21,GCTCGAAC,-0.198 ± 0.0032
22,GCGAGGAA,0.21 ± 0.0086

row,Sequence,PBM E-score of 8-mer
1,GGCTCCAC,-0.15 ± 0.038
2,AACAGAGG,-0.178 ± 0.015
3,ACTCACAC,0.4612 ± 0.00083
4,GTCCAAAC,-0.0846 ± 0.017
5,AAATAGAC,-0.1746 ± 0.0012
6,GTACCATA,-0.246 ± 0.043
7,AGAGGTTG,0.0353 ± 0.068
8,CGTACGTC,-0.111 ± 0.049
9,ATAAAGCG,0.139 ± 0.031
10,AGTTCGCG,0.221 ± 0.038
11,CCGTCCGC,0.00107 ± 0.02
12,GATGAGAA,-0.00456 ± 0.011
13,AAGCAACA,0.079 ± 0.017
14,CAGGGTGC,0.271 ± 0.036
15,GGCCCCGA,-0.341 ± 0.029
16,GAACCAGA,-0.139 ± 0.041
17,AGATAGAG,-0.00491 ± 0.06
18,CAAGTTCC,0.0103 ± 0.1
19,ACTGTAAC,0.123 ± 0.019
20,ACGCATCA,0.083 ± 0.099
21,CAGTTGAA,0.0143 ± 0.069
22,AAGTAGCG,0.149 ± 0.063

row,Sequence,PBM E-score of 8-mer
1,CGGTCAAG,-0.263 ± 0.039
2,ATGGCACC,0.387 ± 0.011
3,AGTTTTAC,-0.00577 ± 0.17
4,CTTGACCA,-0.0573 ± 0.026
5,CGCGTTGC,0.211 ± 0.017
6,CGGGTGCC,0.247 ± 0.024
7,GGGGGTCA,-0.0111 ± 0.17
8,TGTTTGAA,0.112 ± 0.0038
9,AGAATTCG,0.0158 ± 0.13
10,ACGTGGTG,0.212 ± 0.016
11,CGGCTAAA,0.0452 ± 0.049
12,GACGCGTC,0.324 ± 0.023
13,AACATGCG,0.175 ± 0.032
14,CCTAACGA,-0.0186 ± 0.072
15,AAAAAGAT,-0.206 ± 0.07
16,AGGAAGTA,-0.125 ± 0.066
17,CTCCCCGC,-0.0446 ± 0.064
18,AGGATGCG,0.047 ± 0.057
19,GTTCCGTA,-0.202 ± 0.014
20,ACTAGAAG,-0.0175 ± 0.013

# Source: the supplement of paper PMC4166925
